The text below walks through data of PMC6919601, “Identification of Plasmodium dipeptidyl aminopeptidase allosteric inhibitors by high throughput screening” (PLoS ONE, 2019).

The campaign covered roughly 110,000 compounds. About 230 (0.21%) showed an effect of 50% or more. Some of the results follow.
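Note: 30 min substrate incubation versus DMSO and 10 µM JCP410 controls.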

Sequence of DPAP1 (Q8IIJ9 whole entry, looked up): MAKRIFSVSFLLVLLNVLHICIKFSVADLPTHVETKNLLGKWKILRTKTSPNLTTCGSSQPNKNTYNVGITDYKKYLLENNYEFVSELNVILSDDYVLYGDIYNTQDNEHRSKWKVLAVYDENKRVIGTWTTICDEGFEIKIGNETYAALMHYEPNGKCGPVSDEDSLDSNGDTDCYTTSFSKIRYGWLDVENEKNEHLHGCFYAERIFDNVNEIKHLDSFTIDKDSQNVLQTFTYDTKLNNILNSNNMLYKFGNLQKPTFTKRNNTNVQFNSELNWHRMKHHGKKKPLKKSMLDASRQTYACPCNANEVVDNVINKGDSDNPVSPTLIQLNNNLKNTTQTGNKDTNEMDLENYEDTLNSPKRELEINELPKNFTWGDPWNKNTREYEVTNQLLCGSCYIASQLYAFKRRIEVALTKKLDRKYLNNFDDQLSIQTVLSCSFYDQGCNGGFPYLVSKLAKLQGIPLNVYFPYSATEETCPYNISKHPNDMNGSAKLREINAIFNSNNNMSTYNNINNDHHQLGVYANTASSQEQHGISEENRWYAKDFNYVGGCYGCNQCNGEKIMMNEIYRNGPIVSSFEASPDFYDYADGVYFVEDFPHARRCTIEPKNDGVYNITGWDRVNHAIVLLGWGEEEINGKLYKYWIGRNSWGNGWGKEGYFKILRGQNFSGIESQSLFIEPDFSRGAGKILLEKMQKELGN

The experiment addresses DPAP1 (Plasmodium falciparum, UniProt Q8IIJ9). Nature of the experiment: primary screen, percent inhibition; read by cleavage of a fluorogenic dipeptide substrate; higher = more effect of the substance. Further details: species or system P. falciparum D10 trophozoite lysates; single well.
Consider `C=CCOc1ccc(-c2nc(O)c3c(n2)Oc2c(cccc2OC)C3)cc1`, for which the “% Inhibition @ 10 uM” value came to 6.98%. With `O=C(c1scc2c1CCCC2)N1CCN(c2ccc(F)cc2)CC1` the figure was -0.463%; with `COc1ccc(OC)c(C(=O)c2ccc(C(=O)NC(C)(C)C)cc2)c1`, 0.605%. To `COCc1[nH]nc2c1C(c1cccc(Br)c1)C(C#N)=C(N)O2` (centres unmarked) belongs -5.96%; to `CC1(C)NC(=O)N(CC(O)COc2ccc(F)cc2)C1=O` (centres unmarked), 10.9%. Turning to `CC(O)CNc1ncnc2c1c(-c1ccccc1)cn2-c1ccccc1` (centres unmarked), the “% Inhibition @ 10 uM” value was 10.8%.

As to `N#CCNC(=O)C(CSC(N)=O)NC(=O)OCc1ccccc1` (centres unmarked), the “% Inhibition @ 10 uM” value stood at 1.71%. As to `COc1ccc(C(=O)N/C(=C\c2ccc3c(c2)OCO3)C(=O)NCc2ccccc2)cc1`, the “% Inhibition @ 10 uM” value is given as -4.49%. With `CCCN(CCO)C1CCN(CCc2ccccc2)CC1` the figure was -2.91%; with `CN(C)c1nc(-c2ccccc2)c(NC(=O)c2ccccc2)c(-c2ccccc2)n1`, -1.56%; with `Cc1nn(Cc2noc(C(=O)NC3CCC(C)CC3)n2)c(C)c1Br` (centres unmarked), 4.57%. To `COc1ccc2[nH]cc(C3N4CC5(C)CN3CC(C)(C4)C5=O)c2c1` (centres unmarked) belongs -3.13%; to `Cc1cc(Br)cc2c[nH]nc12`, -1.24%.

Consider `Cc1ccc(OCCCCCCN2CCCCC2)cc1`, for which the “% Inhibition @ 10 uM” value was -2.28%. Regarding `CCc1ccc(C(=O)c2cn(CC(=O)NCc3ccccc3)c3nc(C)ccc3c2=O)cc1`, the “% Inhibition @ 10 uM” value was 2.18%. With `O=C(CSc1ccc(Cl)cc1)Nc1ccc2c(c1)OCO2` the figure was -3.83%. With `CC(Nc1nn2nnnc2c2ccccc12)C12CC3CC(CC(C3)C1)C2` (centres unmarked), the “% Inhibition @ 10 uM” value was found to be 1.67%.

For the compound `COc1ccc(CO/C(O)=C2/C(C)=NC3=C(C(=O)CCC3)C2c2ccc(Br)cc2)cc1` (centres unmarked), the “% Inhibition @ 10 uM” value is listed as 25.8%. To `CCCn1c2c(c(O)c(C(=O)Nc3cccc(C)n3)c1=O)CCCC2` belongs -0.458%; to `CCOc1ccccc1C(=O)Nc1cc(C)ccn1`, 0.408%. To `COc1ccc2cc(/N=C/c3nc(-c4cccc5ccccc45)oc3O)cnc2c1` belongs -4.76%; to `Cc1cc2n(n1)C(c1ccc3c(c1)OCO3)Nc1ccccc1-2` (centres unmarked), 3.72%. To `O=C1CC(=O)N(c2ccccc2Cl)C(=S)N1` belongs -0.833%; to `NC(=O)Nc1ccccc1C(=O)Nc1ccc2ccccc2c1`, -1.84%.

As for `Cn1ncc2c(NC3CCCC3)ncnc21`, the “% Inhibition @ 10 uM” value came to 4.61%.

As for `CN(C)CCNC(=O)C(=O)NCC(c1cccnc1)N1CCOCC1` (centres unmarked), the “% Inhibition @ 10 uM” value was -3.51%.

`CC1CCN(c2nc3c(c(C(F)(F)F)n2)CCCCC3)CC1`: the “% Inhibition @ 10 uM” value is 0.505%. With `CN(C1=C(N2CCCC2)C(=O)c2ccccc2C1=O)c1ccccc1` the figure was 3.18%; with `CC1CCC(NC(=O)CCCNS(=O)(=O)c2cccc3nsnc23)CC1` (centres unmarked), 0.317%; with `COc1cc(OC)c(C2C3=C(O)CC(C)(C)CC3=Nc3ncnn32)cc1OC` (centres unmarked), 3.32%. To `CCCNC(=O)C1CCN(c2nnc(C)c3c(C)n(-c4ccc(Cl)cc4)nc23)CC1` belongs 6.62%; to `CCCCCCNc1nc(OCC)nc(N2CC3CC(C2)c2cccc(=O)n2C3)n1` (centres unmarked), -0.703%; to `CC1CCC(C(=O)NC(Cc2c[nH]c3ccccc23)C(=O)Nc2ccncc2)CC1` (centres unmarked), -3.27%. To `Fc1ccccc1C1CC(c2ccc(Cl)cc2)=NN1c1cccc(Br)c1` (centres unmarked) belongs 0.035%; to `O=C1c2cccc3cccc(c23)C(=O)N1c1ccc(O)cc1`, -5.49%. Consider `O=C(c1ccc2c(c1)C(=O)N(Cc1ccco1)C2O)N1CCOCC1` (centres unmarked), for which the “% Inhibition @ 10 uM” value is -2.88%.

As to `Oc1nc(S)nc2c1C1(CCCC1)Cc1ccccc1-2`, the “% Inhibition @ 10 uM” value was -5.62%. To `O=C(CCCCCNc1nc(S)nc2ccccc12)NC1CCCC1` belongs 0.0904%; to `Cc1ccc(OCCCCCN2CCCC2)cc1C`, 1.35%; to `CCCCCCCC(=O)C1C(=O)C=C(C)OC1=O` (centres unmarked), -3.77%. `CCOc1ccc2oc(=O)cc(CN3CCC(Cc4ccccc4)CC3)c2c1`: the “% Inhibition @ 10 uM” value worked out at 0.00706%. To `Cc1cc(-c2ccc(NC(=O)C3CCCO3)c(C)c2)ccc1NC(=O)C1CCCO1` (centres unmarked) belongs -1.42%; to `COC(=O)c1ccc(COc2ccc3oc(-c4ccc(OC)cc4)cc(=O)c3c2)cc1`, 1.32%. With `C/N=c1\c(NS(=O)(=O)c2ccc(C(C)(C)C)cc2)c(O)oc2ccccc12` the figure was 2%. To `Cc1ccc(NC(=O)CN2C(=O)c3ccccc3C2=O)c(Br)c1` belongs 9.29%.

On to `Cc1ccc(Sc2ccncc2S(=O)(=O)NC(=O)c2ccc(Cl)cc2)cc1`, for which the “% Inhibition @ 10 uM” value came out at 0.408%.

As to `CN(C(=O)c1ccc2c(c1)C(=O)N(CCC1=CCCCC1)C2=O)C1CCCCC1`, the “% Inhibition @ 10 uM” value came to 2.94%. On to `C=CCn1c(SCC(=O)NCC2CCCO2)nc2scc(-c3ccccc3Cl)c2c1=O` (centres unmarked), for which the “% Inhibition @ 10 uM” value is on record as -1.28%. To `COc1ccc2nc(N(CCN(C)C)C(=O)c3cccs3)sc2c1` belongs -4.73%; to `CCCCN(C)CCNC(=O)Cn1ncc2c1-c1cc(C)ccc1OC2`, -5.54%.
